The structures appear in SMILES notation. Records with an inconclusive call do not appear. For part of its entries the source gives two or more results. The other results are left out here. The source may hold further records. The records of an entry are repeated measurements in other runs, samples, wells, individuals or studies. Brackets with × count equal records among those shown.

In this experiment the test system is BDF1 mice, colon carcinoma 38 sc, T/C %. In words: NCI In Vivo Anticancer Drug Screen. Data for tumor model Colon Carcinoma 38 (subcutaneous) in B6D2F1 (BDF1) mice. The settings on record: endpoint: median tumor weight (est.), higher = larger tumour. On the procedure: The antitumor activity of compounds was measured in mice bearing transplantable tumors. Survival or tumor size were measured and the results are expressed as the measurement made in the treated group (T) divided by the measurement made in the vehicle treated control group (C). The tumor model used in this assay is Colon Carcinoma 38 (subcutaneous) in B6D2F1 (BDF1) mice

Setting [1] is: dose: 25.0 mg/kg/injection, schedule: Q07DX002 (ip), vehicle: Klucel (hydroxypropylcellulose) (HPC).
Where [2] appears, read: dose: 50.0 mg/kg/injection, schedule: Q07DX002 (ip), vehicle: Klucel (hydroxypropylcellulose) (HPC).
The mark [3] stands for this setting: dose: 5.0 mg/kg/injection, schedule: Q07DX002 (ip), vehicle: saline.
[4] abbreviates: dose: 50.0 mg/kg/injection, schedule: Q07DX002 (ip), vehicle: saline with Tween-80.
The mark [5] stands for this setting: dose: 25.0 mg/kg/injection, schedule: Q07DX002 (ip), vehicle: saline.
[6] abbreviates: dose: 50.0 mg/kg/injection, schedule: Q07DX002 (ip), vehicle: saline.
Where [7] appears, read: dose: 200.0 mg/kg/injection, schedule: Q07DX002 (ip), vehicle: saline.
The mark [8] stands for this setting: dose: 100.0 mg/kg/injection, schedule: Q07DX002 (ip), vehicle: Klucel (hydroxypropylcellulose) (HPC).
Where [9] appears, read: dose: 400.0 mg/kg/injection, schedule: Q07DX002 (ip), vehicle: saline.
The mark [10] stands for this setting: dose: 100.0 mg/kg/injection, schedule: Q07DX002 (ip), vehicle: saline with Tween-80.
Setting [11] is: dose: 800.0 mg/kg/injection, schedule: Q07DX002 (ip), vehicle: saline.

In the case of `Cc1c2ccncc2c(C)c2c1[nH]c1ccccc12`, the T/C runs as follows: (dose: 12.5 mg/kg/injection, schedule: Q07DX003 (ip), vehicle: Klucel (hydroxypropylcellulose) (HPC)) 73 % of control and 117 % of control; under setting [1], 55 % of control and 115 % of control; (dose: 25.0 mg/kg/injection, schedule: Q07DX003 (ip), vehicle: Klucel (hydroxypropylcellulose) (HPC)) 48 % of control and 90 % of control; (dose: 40.0 mg/kg/injection, schedule: Q07DX002 (ip), vehicle: distilled water + Tween-80) 37 % of control and 94 % of control; under setting [2], 54 % of control and 96 % of control.

As for `O=NN(CCCl)C(=O)NC1OC(CO)C(O)C(O)C1O` (stereo not drawn), the T/C by setting is: (dose: 1.25 mg/kg/injection, schedule: Q07DX002 (ip), vehicle: saline) 68 % of control and 155 % of control; (dose: 4.0 mg/kg/injection, schedule: Q07DX002 (ip), vehicle: saline) 52 % of control and 94 % of control; under setting [3], 45 % of control and 103 % of control; (dose: 10.0 mg/kg/injection, schedule: Q07DX002 (ip), vehicle: saline) 70 % of control and 110 % of control; (dose: 20.0 mg/kg/injection, schedule: Q07DX002 (ip), vehicle: saline) 33 % of control and 62 % of control.

Turning to `O=C(O)c1ccc(C(=O)O)c(C(=O)O)c1.[NH-]C1CCCCC1[NH-].[Pt+2]`, the T/C (dose: 12.5 mg/kg/injection, schedule: Q07DX002 (ip), vehicle: sodium bicarbonate) is listed as 39 % of control, 66 % of control, 98 % of control.

Take `CN(C)c1nc(N(C)C)nc(N(C)C)n1`: for the setting “dose: 320.0 mg/kg/injection, schedule: Q07DX002 (ip), vehicle: saline with Tween-80”, the T/C was 39 % of control and 96 % of control.

Consider `c1ccc2c(c1)nnn1c3cnccc3nc21`, for which the T/C is 56 % of control and 91 % of control (dose: 6.25 mg/kg/injection, schedule: Q07DX002 (ip), vehicle: saline with Tween-80); 66 % of control and 108 % of control (dose: 12.5 mg/kg/injection, schedule: Q07DX002 (ip), vehicle: saline with Tween-80).

On to `O=[N+]([O-])c1ccc(Sc2ccncn2)c([N+](=O)[O-])c1`, for which, under setting [4], the T/C was 19 % of control and 100 % of control.

For `CCN(CC)CCC(=O)c1ccccc1`, the T/C is, setting by setting: under setting [5], 40 % of control and 88 % of control; under setting [6], 110 % of control and 152 % of control.

In the case of `CC1(C)OC(=O)N(CO)C1=O`, the T/C was 57 % of control and 226 % of control (dose: 100.0 mg/kg/injection, schedule: Q07DX002 (ip), vehicle: saline); 75 % of control and 226 % of control under setting [7].

As for `CC(=O)OC1=NC(C)c2c1cc(OC(C)=O)[nH]c2=O` (stereo not drawn), the T/C under setting [1] is 55 % of control, 107 % of control, 120 % of control; the T/C under setting [2] is 56 % of control and 96 % of control; the T/C under setting [8] is reported as 25 % of control, 63 % of control, 97 % of control.

With `OC(CCl)CN1CC[N+]2(CC1)CC[N+]1(CCN(CC(O)CCl)CC1)CC2` (stereo not drawn), the T/C reads like this: under setting [7], 49 % of control and 75 % of control; under setting [9], 29 % of control and 56 % of control.

On to `Cc1nn(CCO)c(C)c1N=[N+]([O-])c1c(C)nn(CCO)c1C`, for which the T/C under setting [8] was 19 % of control and 84 % of control.

`COc1cc2cc3cc4cc(OC)c(OC)cc4c(C)[n+]3cc2cc1OC` (tested in a mixture with another compound): the T/C under setting [5] is 66 % of control and 102 % of control.

For the compound `c1ccc2sc(SSN3CC4CCC(CC4)C3)nc2c1`, the T/C is 74 % of control and 117 % of control under setting [4]; 78 % of control and 121 % of control (dose: 400.0 mg/kg/injection, schedule: Q07DX002 (ip), vehicle: saline with Tween-80).

Consider `C=CCNc1nc2c(s1)CCc1cc(OC)c(OC)cc1-2`, for which the T/C was 109 % of control and 163 % of control (dose: 25.0 mg/kg/injection, schedule: Q07DX002 (ip), vehicle: saline with Tween-80); 109 % of control and 152 % of control under setting [4]; 99 % of control and 196 % of control under setting [10].

With `NC1=NCN(C2OC(CO)C(O)C2O)C(=O)N1` (stereo not drawn), the T/C was 81 % of control and 118 % of control (dose: 200.0 mg/kg/injection, schedule: Q07DX003 (ip), vehicle: saline); 30 % of control, 52 % of control, 78 % of control (dose: 800.0 mg/kg/injection, schedule: Q07DX003 (ip), vehicle: saline).

For the compound `O=NN(CCCl)C(=O)NC1[C@H](O)CCC[C@@H]1O` (stereo partly drawn), the T/C under setting [3] is on record as 28 % of control, 43 % of control, 57 % of control.

Regarding `O=C1c2ccccc2C(=O)c2c1cn1c2Cc2ccccc2C1`, the T/C (dose: 150.0 mg/kg/injection, schedule: Q07DX002 (ip), vehicle: Klucel (hydroxypropylcellulose) (HPC)) was 4 % of control (2×) and 30 % of control.

`O=S(=O)(N=N/C=C1\C=CC=CN1O)c1cccs1`: the T/C (dose: 200.0 mg/kg/injection, schedule: Q07DX002 (ip), vehicle: saline with Tween-80) was 57 % of control and 95 % of control.

`CC(C)C(N)C(=O)Nc1nncs1` (stereo not drawn): the T/C is, setting by setting: under setting [5], 80 % of control and 115 % of control; under setting [6], 85 % of control and 112 % of control; under setting [11], 46 % of control and 83 % of control.

Take `C=CCc1cn(C2CC(O)C(CO)O2)c(=O)[nH]c1=O` (stereo not drawn): the T/C reads like this: under setting [7], 81 % of control and 123 % of control; under setting [9], 50 % of control and 106 % of control; under setting [11], 35 % of control and 88 % of control.

For `O=C(CC(=O)C(F)(F)F)c1csc2ccccc12`, the T/C is 123 % of control and 156 % of control under setting [1]; 66 % of control and 104 % of control under setting [8].

Consider `CC[C@@]1(O)C[C@H](OC2CC(N(C)C)C(OC3CC(O)C(OC4CCC(=O)C(C)O4)C(C)O3)C(C)O2)c2c(cc3c(c2O)C(=O)c2c(O)cccc2C3=O)[C@H]1C(=O)OC` (stereo partly drawn), for which the T/C (dose: 1.5 mg/kg/injection, schedule: Q07DX002 (ip), vehicle: water) is 72 % of control and 103 % of control; the T/C (dose: 3.0 mg/kg/injection, schedule: Q07DX002 (ip), vehicle: water) is 20 % of control and 109 % of control; the T/C (dose: 6.0 mg/kg/injection, schedule: Q07DX002 (ip), vehicle: water) was 43 % of control and 121 % of control.

For `Nc1nnc[se]1`, the T/C runs as follows: under setting [4], 55 % of control and 84 % of control; under setting [10], 45 % of control and 86 % of control.

As to `CCCCCCCCCCCCCCCCCC(=O)OCC(=O)OCC(=O)[C@]1(O)Cc2c(O)c3c(c(O)c2[C@@H](OC2CC(N)C(O)C(C)O2)C1)C(=O)c1c(OC)cccc1C3=O` (stereo partly drawn), the T/C (dose: 13.5 mg/kg/injection, schedule: Q07DX002 (ip), vehicle: saline with Tween-80) was 43 % of control, 69 % of control, 78 % of control.

As for `O=C(CCCN1CCC(O)(c2cccc(C(F)(F)F)c2)CC1)c1ccc(F)cc1`, where the note is “dose: 3.12 mg/kg/injection, schedule: Q07DX003 (ip), vehicle: Klucel (hydroxypropylcellulose) (HPC)”, the T/C is 33 % of control and 89 % of control.

Take `Nc1nc(=S)c2[nH]cnc2[nH]1`: the T/C runs as follows: (dose: 2.0 mg/kg/injection, schedule: Q07DX002 (ip), vehicle: saline) 54 % of control and 92 % of control; (dose: 4.0 mg/kg/injection, schedule: Q07DX003 (ip), vehicle: alkali diluted with saline) 12 % of control, 42 % of control, 55 % of control.

Regarding `CC1=C(/C=C/C(C)=C/C=C/C(C)=C/CO)C(C)(C)CCC1`, the T/C is 117 % of control and 200 % of control (dose: 16.0 mg/kg/injection, schedule: Q07DX003 (ip), vehicle: saline with Tween-80); 49 % of control and 85 % of control (dose: 128.0 mg/kg/injection, schedule: Q07DX003 (ip), vehicle: saline with Tween-80).

On to `CNc1cccnc1/C=N/NC(N)=S`, for which the T/C under setting [10] is 66 % of control and 95 % of control.

Consider `O=C/C(Cl)=C(/Cl)C(=O)O`, for which the T/C by setting is: (dose: 2.5 mg/kg/injection, schedule: Q07DX002 (ip), vehicle: saline with Tween-80) 68 % of control and 108 % of control; (dose: 20.0 mg/kg/injection, schedule: Q07DX002 (ip), vehicle: saline with Tween-80) 49 % of control and 120 % of control.

The values above are taken from PubChem BioAssay AID212 (DTP/NCI, 2004).
